Measured values as given in the supplement of paper PMC11417369.
The other results are listed elsewhere or left out.

Each sequence was assayed on PfHDP1 homeodomain (GST-tagged) (assay: gcPBM binding intensity (ln(normalized median fluorescence intensity)); higher = stronger DNA binding).
Summary of the method: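 Binding intensity is defined as the maximum Masliner-normalised natural-log median intensity across replicate spots for either probe orientation. It was measured on an Agilent 4 × 180k array of primer-extended double-stranded 36-bp intergenic genomic probes and negative controls, to which GST-tagged P. falciparum DNA-binding domains made in E. coli were applied for 1 h in 1× PBS with 1% milk, 0.2 mg/ml BSA, 0.5% salmon testes DNA and 0.03% Triton X-100. Detection was by Alexa488 anti-GST antibody and scanning at 488 nm.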

Row | Sequence | gcPBM binding intensity (ln)
1 | CATATATAAATATATACACACATATATATATATATA [CACACA_site1365] | 9.26
2 | TTTATTCAAATATAATGTACTTTCTACAAATTCAAT [XGTACX_site8119] | 6.06
3 | GCTAATAATAAAAGCATAATGAACAAACACCCAGTA [CACACA_negctrl_site806] | 7.22
4 | TTATATAACACGGGGAGGACACAAGAAATAAAGAGC [XGTACX_site2148] | 6.68
5 | TTTTTCTGTTTTTATAGCCTTCTCATAATACATAAA [TGCATGCA_negctrl_site355] | 6.6
6 | AATATGTAAATATGGGTGCTTTAAAATATATTCATT [GTGCAC_site9583] | 6.18
7 | TTCCAATGATAAAATTGTACTTGAAGAAAATTTTTT [XGTACX_site4607] | 6.04
8 | ATTCACAAATATATGGTGCATAATATATATATATAT [GTGCAC_site9674] | 10.5
9 | AACAATTATTGTAATGCATGCACTGAATATAGAAAG [TGCATGCA_site889] | 9.68
10 | ATATATATATGGAAGTGTACTTATATAGCATACTAG [XGTACX_site5130] | 8.37
11 | TACGTATCATAATTTTATTTTATATATATTCACAAA [XGTACX_negctrl_site144] | 6.31
12 | AGCGTATAACATATGACACACACACCGACATACACA [CACACA_site8532] | 6.75
13 | AAATTTTTATAATTATCACACATTGAATTGTGGTCT [CACACA_site4343] | 6.49
14 | GATATGTGTATAATATGTACATATATATATATATAT [XGTACX_site6531] | 9.39
15 | ATTTCCCATACACGTTGTACAATGTAGAGAAAGTAT [XGTACX_site4586] | 6.77
16 | CTATTTAAAATATGAACACACATTATTTGTTTTAGA [CACACA_site2713] | 6.2
17 | AATATAGGAATATGCACACATATATACCTACATACA [CACACA_site4939] | 9.96
18 | AAAAAAAAAAATACTAGTACGTAAAATTATATAAAT [XGTACX_site3019] | 6.7
19 | ATATCATTATATAGTTGTACATATTTATTTATTTAT [XGTACX_site8995] | 6.77
20 | TATATATATATATGTACACACACACCGATAAATAAA [CACACA_site8041] | 9.34
21 | AAAGAAAGAAAACACACACACATATATATATATCAA [CACACA_site3743] | 6.82
22 | TTTTTGTCTGCATACGCACACACGTGGACCATCTTA [CACACA_site8303] | 7.5

Row | Sequence | gcPBM binding intensity (ln)
23 | AACAAAATAAAAAGTAATCTTATTTATTAAAATTTT [CACACA_negctrl_site419] | 5.81
24 | CTTTATTATAAGATTACACACATGTGTTCTAATTTA [CACACA_site7479] | 6.49
25 | TATAAACAAAACAAAACATGCATAATACTATAAATT [TGCATGCA_site333] | 6.73
26 | TAATTAACTTTATATGCATGTTAAAAATGTTATAAG [TGCATGCA_site761] | 6.31
27 | TTTATTAAGAAACACACACACACACCCAAAATAAAA [CACACA_site242] | 7.07
28 | GTAAATATTCATATATGTACTTATGATATTTGCTAA [XGTACX_site6828] | 6.02
29 | TAATACTTATATAAAGGTACACAATTTAACCGAATG [XGTACX_site7173] | 6.61
30 | ACATATATATATATATATTGATTTATTTATTTCCCT [CACACA_negctrl_site659] | 6.62
31 | ATATATATATATAAATGTACAAAAATATATATGTAA [XGTACX_site4531] | 8.94
32 | AAGAAAGAGTTCTGTTGTACAAAATATTAATATGTA [XGTACX_site7213] | 6.66
33 | CTTCCTTAGGAATGTACACACATATAAAATATGTTG [CACACA_site6355] | 6.38
34 | TTTCATTTTTTTACATGTACGCAAAAGTGTGTAGTT [XGTACX_site6582] | 6.55
35 | TTTTGGTTAATTCCCCCCATTACATTATGTCATGTC [CACACA_negctrl_site229] | 7.99
36 | TCTTCAAAGACACAATCACACACATACATAAATATA [CACACA_site8128] | 6.89
37 | ATCAAAAATGTTATATATATATATATATATATATAT [TGCATGCA_negctrl_site71] | 9.42
38 | AATACGTTTCAAAAATGTACACATATATCATAAATA [XGTACX_site8962] | 6.2
39 | GCCATTAATTTATACACACACATTATAACTTTTTAT [CACACA_site6492] | 7.49
40 | TTAAATAAAAAAATAACACACATATAAATCTATATG [CACACA_site7482] | 6.31
41 | TATCAGCAATGGAAAACATGCAAAAAATTAATATAT [TGCATGCA_site623] | 6.97
42 | ATATCAAGCTATGAGAAAAAAAAAAAGAAAAAAAAA [CACACA_negctrl_site1370] | 5.68
43 | AAATATATTGCATATATACACACGTATATATATTAA [CACACA_site2759] | 6.83
44 | AAGTTTTCTTAAAGATGTACTTTTTAAAAATAAAAT [XGTACX_site3063] | 6.15

Row | Sequence | gcPBM binding intensity (ln)
45 | ATATTATAAATTATAGGTACACACAAAAAAAAAAAG [XGTACX_site2637] | 6.89
46 | TGATTCTTTTCAAAGTGTACAGTAATTTTTATGTAA [XGTACX_site8452] | 6.08
47 | TATATAATTCAAAAATGTACATGAAATATAAATATT [XGTACX_site7984] | 6.45
48 | TATATTTATTTTTAATGTACATATTTAAGAAAACTA [XGTACX_site4920] | 6.31
49 | GACTCATTAAGGATTATTCCTAATGATCAAAAGAAC [CACACA_negctrl_site515] | 6.54
50 | TATAGCTTTCATTATACACACATCAAAAATTTAAAT [CACACA_site227] | 6.81
51 | AGTAATAAATTTTATACATGCATAAAAAAAAAAAAA [TGCATGCA_site661] | 6.79
52 | TTAAAAATCATTTAAGAACACACAAATATTTCCATT [CACACA_site8418] | 6.69
53 | AACTTGTATTTATACACACACACACTAGCTTTTTTT [CACACA_site5132] | 6.99
54 | AGAATTAAAAACAGTTGTACAAAAAGTTGTATAAAT [XGTACX_site411] | 7.41
55 | ATCATTTCTATATAAGCACACACGTGGAATTTTTTT [CACACA_site2786] | 6.81
56 | TTTCTTTAACAAGTTAAACACACATACATATATACA [CACACA_site8810] | 6.7
57 | AAAATAAATATATTATCCACGTTGTATATATATATA [XGTACX_negctrl_site136] | 9.05
58 | AATAAATATAAAAATGCACACACACTAATAAAAAAA [CACACA_site8201] | 9.26
59 | CACATACAGATATATACACACAAATATAAATACACA [CACACA_site6512] | 6.81
60 | TTACTTATATGCATAGTGCAAATTTGGTAAATATCT | 9.42
61 | AATAAACAAATAAATAAACACACAATATATGTATAT [CACACA_site9268] | 6.39
62 | CATAAAAATTGAAGCACACACACAAAAGAAATACAA [CACACA_site1112] | 7.12
63 | AAAAAGAAATACAAATAATATATATATATATATATT [TGCATGCA_negctrl_site458] | 6.83
64 | TACATTTTAATATAAGCATGCCTTTAGTTTTTTTCT [TGCATGCA_site829] | 6.6
65 | AATACAAATATATATGCACACACATATACATACATA [CACACA_site8677] | 9.99
66 | CAATTTATTATATATGTGCACATATAATTTTACAAA | 10.4

Row | Sequence | gcPBM binding intensity (ln)
67 | TAATTATTTTTATTGTTGCACTAGTAAAATTTTAAG [GTGCAC_site9946] | 8.49
68 | GAAAATATATTTAAGATGCACTTTAAAAATGTACTT | 7.26
69 | AAGTAATCATCATAAAGTACTAAATTATATTGTCAA [XGTACX_site5841] | 6.31
70 | AAATTATATATAAAATGTACATATGTAGGTAATTTT [XGTACX_site5047] | 7.18
71 | ACATTCTGATGGTGATTATTAATTATTACAAAAATT [CACACA_negctrl_site283] | 6.01
72 | ACTTTATTATATATTTGTACATATATTTTTAATTTC [XGTACX_site4144] | 6.86
73 | TATTTATTGTGATACTTATATTATTTCATGATTAAT [CACACA_negctrl_site738] | 6.35
74 | GTATATATGTATGTATGTACTTATAAAGTTGCATAT [XGTACX_site5616] | 8.58
75 | TCTACATCTGTATATAAACACACAACAAAAATGCTT [CACACA_site9271] | 6.46
76 | AATGTGTAGACACGCACACACAAAAAAATATTTATA [CACACA_site7384] | 6.67
77 | TTCTTACACAAAAAAATGAAATCAATCAAAAAAAAA [CACACA_negctrl_site869] | 5.98
78 | TATATATTTCAATAATGTACATATAATATATATATT [XGTACX_site4124] | 6.6
79 | AAGTAAAATAAGTATACACACATAAATATGTAAATA [CACACA_site6467] | 6.34
80 | TTGTTTTCACCAAATACACACAAGCATACACCCCAT [CACACA_site2717] | 7.34
81 | ATACATAAATTTATACGTACATATATAGATACATAA [XGTACX_site675] | 6.61
82 | TTACATGCTAAAATTTGTACATATATGATAAATATT [XGTACX_site2648] | 6.47
83 | AAATATTACTCCTCAAGTACACATAAAAAAAAAATA [XGTACX_site2085] | 6.62
84 | TTTTATTTTCGATGATGTACATTAAATTATACAGTA [XGTACX_site6053] | 6.36
85 | TAAAAATTTAAGAAAACATGCATCTAACATATATAT [TGCATGCA_site342] | 6.52
86 | TATTTTTTTTGATATTGTACTTTTTTATTATTTTTT [XGTACX_site566] | 6.55
87 | AATATACAAAATAAATAAAATATATATATATATATA [CACACA_negctrl_site216] | 9.24
88 | GGTAGGTGAATATATACACACATATATTATATATAT [CACACA_site1984] | 7.04
